Over roughly 33,000 sequences, “E-score (-0.5 to 0.5)” has its median near -0.032; the highest 2% begin near 0.36. The list shows a part of the results.
target: T1, Sko1 (UniProt Q02100); assay: PBM E-score (8-mer binding enrichment) (E-score (-0.5 to 0.5)); higher = stronger / more preferred TF binding; most listed sequences are background and not binding sites; conditions: protein concentration: 200 nM; construct: GST-full length
T1 sequence: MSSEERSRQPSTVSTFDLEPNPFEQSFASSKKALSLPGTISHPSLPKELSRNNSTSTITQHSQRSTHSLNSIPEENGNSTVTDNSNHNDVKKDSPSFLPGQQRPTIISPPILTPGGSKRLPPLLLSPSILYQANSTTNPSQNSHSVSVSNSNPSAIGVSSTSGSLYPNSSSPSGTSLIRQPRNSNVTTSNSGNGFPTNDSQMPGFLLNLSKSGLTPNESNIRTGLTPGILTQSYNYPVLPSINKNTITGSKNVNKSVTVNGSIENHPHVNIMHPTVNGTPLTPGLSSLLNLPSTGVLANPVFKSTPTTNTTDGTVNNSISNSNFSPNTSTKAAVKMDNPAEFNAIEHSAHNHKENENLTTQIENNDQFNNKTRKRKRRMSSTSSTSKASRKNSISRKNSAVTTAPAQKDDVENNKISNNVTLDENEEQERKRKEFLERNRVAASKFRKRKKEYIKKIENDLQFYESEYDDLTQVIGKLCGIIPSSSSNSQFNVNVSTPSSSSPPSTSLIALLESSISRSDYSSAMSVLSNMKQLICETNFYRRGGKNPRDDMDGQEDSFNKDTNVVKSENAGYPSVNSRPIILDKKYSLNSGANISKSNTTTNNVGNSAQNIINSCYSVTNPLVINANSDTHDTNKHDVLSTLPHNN
Experimental: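 Universal 'all 10-mer' protein binding microarrays (Agilent AMADID 015681) probed with GST-tagged S. cerevisiae TFs (full-length or DBD) made by in vitro transcription/translation (PURExpress), about 100-200 nM. Bound TF was detected with fluorescent anti-GST. Each ungapped 8-mer (which stands for itself and its reverse complement) is scored by the PBM enrichment score (E-score), a modified Wilcoxon-Mann-Whitney statistic from -0.5 to +0.5, computed with the Universal PBM Analysis Suite. Scale: above 0.35 generally sequence-specific binding.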

Sequence	PBM E-score
CATAGGTC	0.0182
GGGCCCCA	-0.266
AGAAGCCC	-0.154
CGCAGACG	0.131
CAAGTACG	0.135
ATCCTGCA	0.183
AGTCCTCA	-0.218
GGTGCTCA	-0.176
AATCTAGA	0.00671
CGGACCGC	-0.281
AGAAGCAC	-0.0239
ATCTAACG	0.176
AGTAGGAC	-0.152
ACGTTAAG	0.325
ACTGATAG	-0.0528
TGCCACCA	-0.17
CGGATACC	-0.0823
ACCTAAGC	0.0757
CGTTCTCC	0.0102
AGATCAGA	-0.0691
ACGTCCAC	0.314
AAAGGTAT	0.0611
AGCAGTCG	-0.0899
ACCGAAAT	0.0128
AGCCACCC	-0.355

Sequence	PBM E-score
GAACCAAA	-0.149
AGCATAAA	0.0727
CAACTAAG	0.0159
GCTGCGCC	-0.315
CAGCTGCA	-0.228
CAAGTCTC	-0.19
AGCCCTTC	-0.197
TCTGGGCA	-0.222
ACAAACAG	-0.0756
AGCCGACT	-0.165
CGCGCCGA	-0.11
CCCGGCCA	-0.334
GATAAGAA	0.217
TGAAGACA	0.0964
CGAGCATC	-0.211
AGCCGTAC	0.0111
AGAACGAA	0.0852
GCCCTAGC	-0.218
CATATTTA	0.186
AAGATAAT	0.19
CCGCGGTC	-0.247
GCGGTCAA	-0.234
TTTGCAAA	0.0584
GTCTAGCA	-0.00592
TCACGTCA	0.484

Sequence	PBM E-score
GAAGTGCA	-0.08
AGTGGGGC	-0.273
TAAAGTGA	0.255
ACTCCAAG	-0.0313
ACGGTAAA	0.0336
GAGTTGCC	-0.118
ACCCTTGA	-0.0782
ACAATGCG	0.121
ACAGTGTA	0.0382
AGTTGCGA	0.156
AACTGTCA	0.038
ACCTGCAG	-0.176
CATCTCGC	-0.129
AGCTAGTC	-0.00295
CCCTCGAG	-0.232
CCTATGAG	-0.025
AAGACGTC	0.419
AAAAACGC	0.141
AGATGACG	0.476
AGAGCGAC	0.0314
GCCACGAA	-0.128
ATACTTTC	0.0725
ACTCTGTC	0.0399
GTCAGCAC	-0.00835
CTTGATAA	0.0902

Sequence	PBM E-score
CGCTCGCA	-0.0661
AAAACAGA	0.112
ATATGTCC	-0.0276
ACCCCCAT	-0.29
CCGAACCC	-0.324
CGTGGGAG	0.0814
CTTCCTAA	-0.0643
CCGCACTA	-0.0619
TAATCCAA	0.198
CCCGAGTA	-0.117
CCCCAAAC	-0.266
CCCTCTCA	-0.339
ACTCGAAG	-0.183
ACCGAGAG	-0.307
AACGGACC	-0.224
GCCGCTTA	-0.123
CCGAAGAG	-0.149
GGGCGTGA	0.0355
TATACAAA	0.21
GTCGACAA	0.0253
ACAAGTTC	0.0278
AGCTGTCG	-0.146
CCAATGAG	-0.0961
AATTACGC	0.44
CTGACGGC	-0.167

Sequence	PBM E-score
ATCACAGA	-0.0306
AGGCAAAA	-0.0629
AGCCAGAT	-0.164
GGAACTAA	-0.0195
CGATAGTA	-0.089
CTGTTTGC	0.126
CTACATGA	0.0515
CGATTGAA	0.0268
AGGCCACG	-0.0951
TAGCGCGA	-0.0664
ACGTGTTA	0.434
AGCGTTAA	-0.0246
AGATAGCA	-0.0121
AGAAGGAA	-0.235
ATTGTTCA	0.112
CTAGGCGA	-0.279
GACTTTAC	0.151
ACGGGAAC	-0.0328
ACTGAGTG	-0.117
GAAGTGTC	-0.14
AGGTTTCA	-0.0467
ACTAAGCA	0.0365
CCTGCTGC	-0.163
CATTCTAA	0.203
AATCACTC	-0.0882

Sequence	PBM E-score
ATCAGAGA	-0.00493
ACGCACCA	0.201
TACTATCA	0.04
CATATACC	-0.0988
GTTTCGCA	-0.00662
GGGGCAGA	-0.132
ACCCGCGT	-0.00843
AGCCTCTA	-0.256
CCCACCCC	-0.0513
CAGAGTGC	-0.0625
AATAAACG	0.265
AGATATTC	0.0644
ACATCTTG	-0.0418
AGGAGCAC	-0.172
CATGTGTA	0.0165
AGGCCAAG	-0.225
AACAGGGA	-0.0465
CGAATGCA	0.203
ACTTGCTG	0.0473
ACGGCCTC	-0.257
GTTTACAA	0.19
TCCGCCAA	-0.0213
CTCATTAC	0.33
GGCATGCA	0.0671
AACCCTAC	-0.111

Sequence	PBM E-score
ATTATACG	0.299
ATGGACCC	-0.151
GGCTCGTA	0.103
TCCTCTAA	-0.0691
TAGGGTGA	0.035
CCAGACAA	-0.182
TACTACGA	0.276
TAACCCGA	-0.139
CTACCCTA	-0.0649
CCGAGTAA	-0.0722
CTGAAGAC	-0.129
GACTGCAC	-0.14
GGTCACAC	-0.0911
ACGACTTA	0.143
CGGAGATA	-0.0481
AGGAGCTA	-0.0523
AGTCCAGA	-0.14
ATCCCGTA	0.166
AAGGGATC	-0.146
CAGCACCG	-0.198
ACAAATAC	0.197
ATCGGGAC	-0.0632
